Measurements taken from publication PMC6919601, “Identification of Plasmodium dipeptidyl aminopeptidase allosteric inhibitors by high throughput screening” (PLoS ONE, 2019).
Out of some 110,000 compounds screened, about 230 (0.21%) showed an effect of 50% or more. This is one part of the list.

These compounds were tested against DPAP1 (Plasmodium falciparum, UniProt Q8IIJ9) (assay: primary screen, percent inhibition; read by cleavage of a fluorogenic dipeptide substrate; higher = more effect of the substance).
Parameters: species or system P. falciparum D10 trophozoite lysates; single well
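Note: 30 min substrate incubation versus DMSO and 10 µM JCP410 controls.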

Sequence of DPAP1 (Q8IIJ9 whole entry, looked up): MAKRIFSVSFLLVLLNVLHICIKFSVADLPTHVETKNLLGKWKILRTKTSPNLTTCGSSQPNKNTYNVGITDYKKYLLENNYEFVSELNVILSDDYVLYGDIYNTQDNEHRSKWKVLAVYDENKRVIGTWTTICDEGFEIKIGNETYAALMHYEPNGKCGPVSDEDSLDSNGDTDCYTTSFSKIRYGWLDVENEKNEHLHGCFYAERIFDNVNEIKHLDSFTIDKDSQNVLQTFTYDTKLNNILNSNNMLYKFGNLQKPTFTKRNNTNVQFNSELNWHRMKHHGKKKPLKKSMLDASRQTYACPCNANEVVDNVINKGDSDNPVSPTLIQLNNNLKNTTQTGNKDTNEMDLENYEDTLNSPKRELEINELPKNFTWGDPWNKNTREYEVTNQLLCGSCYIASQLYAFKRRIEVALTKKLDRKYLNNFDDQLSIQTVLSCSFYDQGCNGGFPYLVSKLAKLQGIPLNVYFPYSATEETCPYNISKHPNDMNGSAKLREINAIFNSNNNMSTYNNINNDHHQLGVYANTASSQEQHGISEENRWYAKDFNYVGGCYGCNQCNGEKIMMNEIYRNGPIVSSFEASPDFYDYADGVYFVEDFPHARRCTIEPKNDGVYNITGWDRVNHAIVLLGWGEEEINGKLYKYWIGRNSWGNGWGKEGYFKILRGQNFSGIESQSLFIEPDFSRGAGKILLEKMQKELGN

Compound | % Inhibition @ 10 uM [%]
CC[C@@H](C)[C@H](NC(=O)OCc1ccccc1)C(=O)N[C@@H](CCc1ccccc1)C(=O)c1nc2ccccc2o1 | 6.4
Cc1ccc(S(=O)(=O)N(CC(=O)Nc2ccc3c(c2)OCO3)c2ccc(C)c(C)c2)cc1 | 3.17
CCO/C(O)=C1/C(C)=Nc2ncnn2C1c1ccc(OC(F)F)c(OCC)c1 (centres unmarked) | 7.63
CCN(CCN(C)C)Cc1ccc(Cl)cc1 | 3.24
CCN1CCN(CC(C)c2ccccc2)CC1 (centres unmarked) | 1.88
COc1ccc(C2C(C(=O)c3ccccc3)=C(O)C(=O)N2CCN2CCOCC2)c(OC)c1 (centres unmarked) | 2.17
Cc1ccc(C(c2c(O)nc(S)nc2O)N2CCCC(C)C2)cc1 (centres unmarked) | 3.51
Cc1nn(C)c2c1c(C(F)(F)F)cc(=O)n2CC(=O)NCc1ccccc1 | -1.74
Cc1c(Cl)cccc1NC(=O)CSc1nc2ccccc2[nH]1 | 6.86
Cc1ccc(NC(=O)CCc2nnc3ccc(N4CCN(C)CC4)nn23)nc1 | -5.85
COc1ccc(C(=O)/C=C/c2oc3cc(C)ccc3c2C)c(O)c1 | -0.0267
CCn1c(C(=O)O)c(CNCCC2=CCCCC2)c2ccccc21 | 3.54
CCC(C)c1c(O)nc(SCC(=O)N(CC)CC)nc1O (centres unmarked) | -6.44
CSc1nc(Oc2cccc3ccccc23)cc(-n2nc(C)c(C#N)c2N)n1 | 2.44
Cc1c(C)c2ccc(OC3CCCCC3=O)cc2oc1=O (centres unmarked) | -3.64
CC1=C(C(=O)N2CCN(C(=O)c3ccco3)CC2)C2(CCC(C)CC2)OC1=O (centres unmarked) | -0.354
CN(CC/C=C1/c2ccccc2CSc2ccccc21)CCCO | -16
COc1cccc(S(=O)(=O)NCc2ccc(C(=O)N3CCN(c4ccccc4)CC3)cc2)c1 | 0.161
Cc1cc(C(=O)N2CC(C)CC(C)C2)c2c(C)nn(-c3ccccc3)c2n1 (centres unmarked) | -4.97
COc1cccc(C2C(C#N)=C(N)Oc3cc(N)ccc32)c1OC (centres unmarked) | 3.54
CCC(Sc1nc(-c2ccc(OC)cc2)nc2c1c(=O)n(C)c(=O)n2C)C(=O)O (centres unmarked) | 2.34
N#CC1=C(N)N(c2c(F)cccc2F)C2=C(C(=O)CCC2)C1c1cccnc1 (centres unmarked) | -4.76
Cc1nnc(N2C(=O)c3oc4ccccc4c(=O)c3C2c2ccc(O)cc2)s1 (centres unmarked) | -6.23
CC1CCCC(Nc2ncnc3onc(-c4ccc(F)cc4)c23)C1C (centres unmarked) | 0.882
O=C(OC1c2ccccc2C(=O)N1Cc1ccccc1)c1cccc(Cl)c1 (centres unmarked) | 0.446

Compound | % Inhibition @ 10 uM [%]
Cc1cc(C)c(Cn2cnc3ccccc32)c(C)c1 | -0.0235
COc1ccc(N2CCN(Cc3cccc(OC)c3)CC2)cc1 | 4.57
CCCCN(CCCC)S(=O)(=O)c1ccc2oc(C(=O)NCc3ccco3)c(C)c2c1 | -4.06
CCn1c(=O)c(C(=O)Nc2nccs2)c(O)c2ccccc21 | 2.45
CCO/C(O)=C1/C(C)=Nc2nc3ccccc3n2C1c1sccc1C (centres unmarked) | 0.221
CCCc1[nH]nc2c1C(c1ccc(OCC)c(OCC)c1)C(C#N)=C(N)O2 (centres unmarked) | 1.03
CN(C)c1nc(NC(C)(C)C)nc(SCC(=O)Nc2ccccc2)n1 | -2.58
CC(CCc1ccccc1)NC(=O)Cn1ccc2cc(S(=O)(=O)N3CCCCC3)ccc21 (centres unmarked) | 0.181
CCN(CC)c1ccc(NC(=O)CN2C(=O)c3ccccc3C2=O)cc1 | -0.425
CSc1ncc(C(=O)NCc2ccc(OC(C)C)cc2)c(-c2ccccc2)n1 | -4.45
Cc1cnn(-c2cc(C(F)(F)F)nc(-c3ccccc3)n2)c1 | -0.636
CCOc1ccc(/C=C2\SC(Nc3ccccc3)=NC2=O)cc1OC | 1.34
CC1(C(=O)O)CCC(C(=O)Nc2ccc3ccccc3c2)C1(C)C (centres unmarked) | 5
CCOC(=O)c1c(C)c(C(=O)NC(C)CC)c(C)n1C (centres unmarked) | 0.0579
COc1cccc2c1cc1c(=O)n(CC(=O)NCc3ccccn3)nc(C)n12 | 3.29
N#C/C(=C\c1c(Oc2ccccc2Cl)nc2ccccn2c1=O)C(=O)N1CCCCC1 | -4
O=C(CSCc1ccc(Cl)cc1Cl)Nc1cnc(O)nc1O | 12.2
COc1ccccc1OCc1ccc(C(=O)N2N=C(C(F)F)CC2(O)C(F)F)o1 (centres unmarked) | -2.54
O=C1c2ccccc2C(=O)N1CCN1CCc2ccccc21 | -2.07
O=C(NCCN1CCC(Cc2ccccc2)CC1)c1cc(-c2cccnc2)nc2ccccc12 | 3.24
CN(Cc1ccco1)S(=O)(=O)c1nnc(NC(=O)c2ccc(C(C)(C)C)cc2)s1 | 4.19
CCC(C)NC(=O)CN(C1CCCCC1)S(C)(=O)=O (centres unmarked) | -2.32
CC1CCN(c2nc3c(c(=O)n(C)c(=O)n3C)n2Cc2cccc(C(F)(F)F)c2)CC1 | 3.35
CCOC(=O)c1c(N)n(-c2cccc(O)c2)c2nc3ccccc3nc12 | -2.7
COc1ccccc1-c1nnc2sc(CCc3ccccc3)nn12 | 4.47
